Results published in paper PMC9649770.
Like-named read-outs stand apart in the source and are kept apart here. These are yes or no findings as the source states them, for the method shown. Binding seen in cells or lysates may run through a third protein. Some results given as binding are weak or reduced against the parent protein; the word gives no strength. For some assays here: Where a sequence is shown, tags or fusion partners need not be part of it.

Chains of the proteins cited; added tags and fusions are not shown.
UniProt Q14145: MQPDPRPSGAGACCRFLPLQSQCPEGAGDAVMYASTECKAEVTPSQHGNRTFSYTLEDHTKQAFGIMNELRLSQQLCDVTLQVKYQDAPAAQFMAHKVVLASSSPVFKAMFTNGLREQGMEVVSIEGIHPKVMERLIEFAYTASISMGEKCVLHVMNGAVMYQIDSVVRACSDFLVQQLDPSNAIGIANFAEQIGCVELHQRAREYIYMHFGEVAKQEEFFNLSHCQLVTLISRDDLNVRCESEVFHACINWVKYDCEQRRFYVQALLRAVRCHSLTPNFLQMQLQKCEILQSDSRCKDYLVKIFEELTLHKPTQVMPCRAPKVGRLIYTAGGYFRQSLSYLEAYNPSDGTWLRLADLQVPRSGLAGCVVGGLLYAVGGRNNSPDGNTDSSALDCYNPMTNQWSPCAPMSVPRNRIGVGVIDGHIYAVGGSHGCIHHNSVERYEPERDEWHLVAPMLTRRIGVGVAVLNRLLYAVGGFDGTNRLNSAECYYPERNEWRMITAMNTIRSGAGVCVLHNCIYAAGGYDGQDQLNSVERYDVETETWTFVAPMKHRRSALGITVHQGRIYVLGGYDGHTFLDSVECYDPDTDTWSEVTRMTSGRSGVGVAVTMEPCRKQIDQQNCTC

Assays:
[1] = biological target: T1, HA-tagged OTUD1 ΔETGE mutant (human) (UniProt Q5VV17); assay: co-IP; HEK 293 cells expressing HA-tagged OTUD1 and Flag-tagged KEAP1 or PRDX4; lysis in 20 mM TRIS pH 7.5, 150 mM NaCl, 0.5% NP40; anti-FLAG M2 or anti-HA agarose, 2 h at 4 °C; elution with FLAG or HA peptide; western blotting
T1 sequence: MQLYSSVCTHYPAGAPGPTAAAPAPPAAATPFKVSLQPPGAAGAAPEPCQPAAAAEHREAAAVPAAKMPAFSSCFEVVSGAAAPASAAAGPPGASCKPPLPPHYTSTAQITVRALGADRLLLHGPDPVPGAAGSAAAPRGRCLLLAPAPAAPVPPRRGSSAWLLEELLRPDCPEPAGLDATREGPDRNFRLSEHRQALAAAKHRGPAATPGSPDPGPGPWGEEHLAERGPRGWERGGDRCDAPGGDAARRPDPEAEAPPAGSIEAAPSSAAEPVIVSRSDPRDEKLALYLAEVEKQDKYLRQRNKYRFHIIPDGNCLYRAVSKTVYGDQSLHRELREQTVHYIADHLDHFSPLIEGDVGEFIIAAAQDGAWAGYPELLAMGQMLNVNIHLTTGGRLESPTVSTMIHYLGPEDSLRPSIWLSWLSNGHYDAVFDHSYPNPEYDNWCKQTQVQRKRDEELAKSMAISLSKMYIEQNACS

[2] = biological target: T2, N-terminally HA-tagged OTUD1 wild type (human) (UniProt Q5VV17); assay: as above
T2 sequence: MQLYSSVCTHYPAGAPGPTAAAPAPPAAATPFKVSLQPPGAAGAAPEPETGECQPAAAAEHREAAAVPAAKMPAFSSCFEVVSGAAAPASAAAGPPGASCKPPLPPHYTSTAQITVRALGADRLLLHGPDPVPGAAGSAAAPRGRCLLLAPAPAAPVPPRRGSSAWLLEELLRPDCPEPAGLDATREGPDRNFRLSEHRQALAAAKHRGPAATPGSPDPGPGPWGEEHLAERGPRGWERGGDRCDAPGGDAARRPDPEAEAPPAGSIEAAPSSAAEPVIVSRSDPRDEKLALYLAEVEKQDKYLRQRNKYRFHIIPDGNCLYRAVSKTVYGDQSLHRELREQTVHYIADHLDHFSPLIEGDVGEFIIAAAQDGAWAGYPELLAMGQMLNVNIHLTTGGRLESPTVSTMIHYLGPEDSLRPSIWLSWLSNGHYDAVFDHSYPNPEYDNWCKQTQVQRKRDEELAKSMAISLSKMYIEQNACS

[3] = biological target: T3, Endogenous OTUD1 (human (endogenous in RPMI8226)) (UniProt Q5VV17); assay: co-IP; endogenous proteins from RPMI8226 lysate (20 mM TRIS pH 7.5, 150 mM NaCl, 0.5% NP40); anti-OTUD1 rabbit polyclonal sera overnight at 4 °C, Protein A/G PLUS-agarose; western blotting
T3 sequence: T2 sequence

[4] = biological target: T3, Endogenous OTUD1 (human (endogenous in RPMI8226)); assay: as above; remark: listed apart in the source
[5] = biological target: T2, N-terminally HA-tagged OTUD1 wild type (human); assay: co-IP; HEK 293 cells expressing HA-tagged OTUD1 and Flag-tagged KEAP1 or PRDX4; lysis in 20 mM TRIS pH 7.5, 150 mM NaCl, 0.5% NP40; anti-FLAG M2 or anti-HA agarose, 2 h at 4 °C; elution with FLAG or HA peptide; western blotting; remark: listed apart in the source

## Flag-tagged KEAP1 (from UniProt Q14145 1-624)
[1]
  binding: no binding
[2]
  binding: binds

## endogenous KEAP1 (from UniProt Q14145 1-624)
[3]
  binding: binds

B1: endogenous PRDX4 (protein, UniProt Q13162 38-271)
chain: WETEERPRTREEECHFYAGGQVYPGEASRVSVADHSLHLSKAKISKPAPYWEGTAVIDGEFKELKLTDYRGKYLVFFFYPLDFTFVCPTEIIAFGDRLEEFRSINTEVVACSVDSQFTHLAWINTPRRQGGLGPIRIPLLSDLTHQISKDYGVYLEDSGHTLRGLFIIDDKGILRQITLNDLPVGRSVDETLRLVQAFQYTDKHGEVCPAGWKPGSETIIPDPAGKLKYFDKLN
[4]
  binding: binds

B2: ER-localization sequence deficient (Δ1-38) Flag-tagged PRDX4 (domain or fragment, UniProt Q13162 39-271)
chain: ETEERPRTREEECHFYAGGQVYPGEASRVSVADHSLHLSKAKISKPAPYWEGTAVIDGEFKELKLTDYRGKYLVFFFYPLDFTFVCPTEIIAFGDRLEEFRSINTEVVACSVDSQFTHLAWINTPRRQGGLGPIRIPLLSDLTHQISKDYGVYLEDSGHTLRGLFIIDDKGILRQITLNDLPVGRSVDETLRLVQAFQYTDKHGEVCPAGWKPGSETIIPDPAGKLKYFDKLN
[5]
  binding: no binding
